Experimental findings from PMC4336329 (PLoS ONE, 2015) are described below.

About 2,200 (0.71%) of roughly 310,000 compounds showed an effect of 50% or more. The effect is printed as a negative number. The list shows a part of the results. Where a SMILES comes first, the peptide text is derived from it. The star is where a group is joined. Boc = CC(C)(C)OC(=O)*

Sequence of human ether-à-go-go-related gene (hERG) potassium channel (Q12809 whole entry, looked up): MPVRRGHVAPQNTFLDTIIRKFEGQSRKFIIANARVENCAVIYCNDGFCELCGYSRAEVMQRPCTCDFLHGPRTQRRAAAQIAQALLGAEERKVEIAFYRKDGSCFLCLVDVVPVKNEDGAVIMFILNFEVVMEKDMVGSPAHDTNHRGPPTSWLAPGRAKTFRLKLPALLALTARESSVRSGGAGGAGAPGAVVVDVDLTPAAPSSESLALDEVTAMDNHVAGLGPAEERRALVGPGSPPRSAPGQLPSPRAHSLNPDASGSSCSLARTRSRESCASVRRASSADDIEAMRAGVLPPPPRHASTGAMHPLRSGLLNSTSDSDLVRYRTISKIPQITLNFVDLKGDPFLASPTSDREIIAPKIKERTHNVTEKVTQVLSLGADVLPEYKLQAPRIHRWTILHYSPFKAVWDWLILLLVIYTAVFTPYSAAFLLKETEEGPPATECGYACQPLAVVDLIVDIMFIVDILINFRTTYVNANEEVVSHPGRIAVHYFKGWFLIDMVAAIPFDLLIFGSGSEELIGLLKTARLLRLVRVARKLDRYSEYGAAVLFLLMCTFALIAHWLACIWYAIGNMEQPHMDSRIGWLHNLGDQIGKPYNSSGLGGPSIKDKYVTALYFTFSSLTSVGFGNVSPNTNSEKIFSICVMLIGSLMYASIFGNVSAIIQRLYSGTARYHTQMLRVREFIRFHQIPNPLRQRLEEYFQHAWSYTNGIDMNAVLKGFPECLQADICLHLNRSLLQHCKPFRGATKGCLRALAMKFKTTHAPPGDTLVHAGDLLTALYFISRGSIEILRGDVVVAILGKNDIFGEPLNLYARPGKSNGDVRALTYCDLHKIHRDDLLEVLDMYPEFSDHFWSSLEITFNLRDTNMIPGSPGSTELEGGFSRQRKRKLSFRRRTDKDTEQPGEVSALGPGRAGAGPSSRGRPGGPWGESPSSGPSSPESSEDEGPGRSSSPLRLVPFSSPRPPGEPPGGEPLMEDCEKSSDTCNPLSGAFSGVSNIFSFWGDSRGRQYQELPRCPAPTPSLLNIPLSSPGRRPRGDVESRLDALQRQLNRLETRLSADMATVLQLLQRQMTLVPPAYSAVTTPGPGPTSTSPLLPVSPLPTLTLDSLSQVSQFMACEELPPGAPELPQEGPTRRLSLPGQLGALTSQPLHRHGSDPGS

This assay addresses human ether-à-go-go-related gene (hERG) potassium channel (human, UniProt Q12809). In words: primary screen, population patch clamp on CHO cells stably expressing hERG.
For `O=C1/C(=C\c2ccccn2)SC(=S)N1Nc1ncc(C(F)(F)F)cc1Cl`, the “hERG current change (%, negative = inhibition) at 1uM” value is listed as 4.83%.

Regarding `CC(=O)C1C(=O)C=C(c2cccs2)CC1c1ccccc1` (stereo not drawn), the “hERG current change (%, negative = inhibition) at 1uM” value was 9.11%.

As to `O=C(NCCCN1CCN(c2ccccc2F)CC1)C1CCCN(S(=O)(=O)c2cnc[nH]2)C1` (stereo not drawn), the “hERG current change (%, negative = inhibition) at 1uM” value turned out to be 14.3%.

On to `CCCCCN1C=CC(=C2C(=O)c3ccccc3C2=O)C=C1`, for which the “hERG current change (%, negative = inhibition) at 1uM” value amounted to 8.12%.

In the case of `CC(=O)C1=C(c2ccccc2)NC(=S)NC1c1cc(Cl)c(OC(C)C)c(Cl)c1` (stereo not drawn), the “hERG current change (%, negative = inhibition) at 1uM” value was 12.3%.

As to `O=C(c1ccccc1)c1nnc(-c2ccccc2F)o1`, the “hERG current change (%, negative = inhibition) at 1uM” value is -16%.

Take `Cc1cc(=O)[nH]c(N2CCN(c3ccc(Cl)cc3)CC2)n1`: the “hERG current change (%, negative = inhibition) at 1uM” value was determined as 8.83%.

On to `Cc1cc(C)nc(CCNC(=O)CC2C(=O)NCCN2Cc2ccccc2)n1` (stereo not drawn), for which the “hERG current change (%, negative = inhibition) at 1uM” value was 23.9%.

In the case of `COC1=C(Nc2ccc(OC)cc2)C(=O)c2ccccc2C1=O`, the “hERG current change (%, negative = inhibition) at 1uM” value is 13%.

For the molecule `CCOC(=O)c1c(N)nn(C(=O)C(C)C)c1-c1ccc(OC)cc1`, the “hERG current change (%, negative = inhibition) at 1uM” value is given as 15%.

In the case of `C=CCN1C=C2C(=O)C(C)(OC(=O)CCC(=O)OC)C(=O)C=C2C=C1C1CC1` (stereo not drawn), the “hERG current change (%, negative = inhibition) at 1uM” value worked out at 14.1%.

Take `Cn1c(SCC(=O)N2CCCc3ccccc32)nnc1-c1c[nH]c2ccccc12`: the “hERG current change (%, negative = inhibition) at 1uM” value was 0.712%.

For `CSCCC(NC(=O)OC(C)(C)C)C(=O)NC(CC(C)C)C(N)=O` (stereo not drawn) (Boc-Met-Leu-NH2; configuration not given here), the “hERG current change (%, negative = inhibition) at 1uM” value is given as 11.4%.

`CCC(=O)Nc1cc(Cl)ccc1N1CCN(C(=O)CC)CC1`: the “hERG current change (%, negative = inhibition) at 1uM” value is -9.02%.

Consider `CN(C)S(=O)(=O)c1cccc(NC(=O)CNC2CCCCC2)c1.O=C(O)C(=O)O`, for which the “hERG current change (%, negative = inhibition) at 1uM” value worked out at 8.12%.

Take `CN(CC(=O)Nc1ccc(Cl)c(C(F)(F)F)c1)C(=O)CCCc1nc2ccccc2c(=O)[nH]1`: the “hERG current change (%, negative = inhibition) at 1uM” value is on record as 13.2%.

Regarding `Cc1ccc(C(=O)O)cc1-c1ccc(/C=C2\SC(=O)N(CC(=O)Nc3ccccc3)C2=O)o1`, the “hERG current change (%, negative = inhibition) at 1uM” value was determined as 14.6%.

`COCCCNc1nc2nonc2nc1N1CCN2CCCC2C1` (stereo not drawn): the “hERG current change (%, negative = inhibition) at 1uM” value is recorded as 13.6%.

In the case of `CCOCCn1c(N2CCN(c3ccccc3)CC2)nc2c1c(=O)n(C)c(=O)n2C`, the “hERG current change (%, negative = inhibition) at 1uM” value was 5.11%.

On to `Cc1ccc(OCC(O)CN2CCN(Cc3ccc4c(c3)OCO4)CC2)c(C)c1.Cl` (stereo not drawn), for which the “hERG current change (%, negative = inhibition) at 1uM” value is given as -18.6%.

For the molecule `CCN(CC)CCN(C(=O)c1ccc([N+](=O)[O-])cc1)c1nc2ccc(OC)cc2s1.Cl`, the “hERG current change (%, negative = inhibition) at 1uM” value was 8.14%.

As to `COCCn1c(SCC(=O)NCc2ccc3c(c2)OCO3)nc2ccccc2c1=O`, the “hERG current change (%, negative = inhibition) at 1uM” value is recorded as -10.6%.

Take `Cc1ccc2c(c1)N(CCC(=O)NC1CC1)C(=O)C(C)O2` (stereo not drawn): the “hERG current change (%, negative = inhibition) at 1uM” value worked out at 13.5%.

`Cc1ccc(NC(=O)CSc2nnc(N)s2)cc1S(=O)(=O)N1CCCCC1`: the “hERG current change (%, negative = inhibition) at 1uM” value is 12.7%.

On to `Cc1ccc(C(=O)NNC(=O)C2CCN(Cc3ccccc3)CC2)cc1`, for which the “hERG current change (%, negative = inhibition) at 1uM” value amounted to 7.73%.

In the case of `COc1ccc(/C=N/Nc2nc(C)nc(N)n2)cc1`, the “hERG current change (%, negative = inhibition) at 1uM” value was -2.51%.

Consider `NC(=S)Nc1cccc2[nH]ccc12`, for which the “hERG current change (%, negative = inhibition) at 1uM” value is 8.1%.

In the case of `CCOC(=O)CN1Cc2cccc(C(=O)O)c2C1=O`, the “hERG current change (%, negative = inhibition) at 1uM” value was 8.67%.

Consider `C=C(C)COc1ccc(-c2n[nH]c(C)c2-c2ccc(OC)cc2)c(O)c1`, for which the “hERG current change (%, negative = inhibition) at 1uM” value was found to be 11%.

In the case of `CCCCCCCCNC(=O)/C(C#N)=C/c1ccc2c(c1)OCCO2`, the “hERG current change (%, negative = inhibition) at 1uM” value is 4.7%.

As for `Cc1cccc(OCc2nnc(SCc3cc(=O)[nH]c4ccccc34)n2-c2ccccc2)c1`, the “hERG current change (%, negative = inhibition) at 1uM” value is recorded as 10.8%.

For `CCC(CC)c1nnc(NC(=O)C2CC(=O)N(c3ccc4c(c3)OCCO4)C2)s1` (stereo not drawn), the “hERG current change (%, negative = inhibition) at 1uM” value is 8.27%.

For the molecule `COC(=O)/C(=C(/F)Sc1cc(C)c(O)c(C)c1)C(F)(F)F`, the “hERG current change (%, negative = inhibition) at 1uM” value is listed as -16.5%.

Regarding `O=C(O)C1=C[C@H](C2CC2)C[C@H](OCCCCO)O1`, the “hERG current change (%, negative = inhibition) at 1uM” value was 12.3%.

On to `CC1=NN(Cc2ccccc2)C(=O)C1C(c1ccncc1)C(C#N)C#N` (stereo not drawn), for which the “hERG current change (%, negative = inhibition) at 1uM” value is 10.3%.

In the case of `Cc1csc(Sc2ccc(C(=O)OCC(=O)Nc3ccc(OC(F)(F)F)cc3)cc2[N+](=O)[O-])n1`, the “hERG current change (%, negative = inhibition) at 1uM” value was determined as 7.43%.

In the case of `NC(=O)C1CCCN(C(=O)Nc2cccc3ccccc23)C1` (stereo not drawn), the “hERG current change (%, negative = inhibition) at 1uM” value was 4.67%.

`CCOc1c(OC)cccc1C1CC(=O)Nc2cc(OC)c(OC)cc21` (stereo not drawn): the “hERG current change (%, negative = inhibition) at 1uM” value is 9.23%.

On to `Cl.Clc1ccc(-c2ccc(CNCc3ccccn3)o2)cc1`, for which the “hERG current change (%, negative = inhibition) at 1uM” value was -5.94%.

For the molecule `O=C(NC(=S)Nc1cccc(NC(=O)c2ccccc2)c1)c1cccc([N+](=O)[O-])c1`, the “hERG current change (%, negative = inhibition) at 1uM” value was found to be 27.6%.

`CCOC(=O)C1(Cc2ccc(OC)cc2)CCN(C(=O)[C@@H]2CCCN2C(C)=O)CC1`: the “hERG current change (%, negative = inhibition) at 1uM” value stood at 8.58%.

Take `O=C(CCC(=O)c1ccccc1)Nc1cccnc1`: the “hERG current change (%, negative = inhibition) at 1uM” value was determined as 7.13%.

For `CCOc1ccc(S(=O)(=O)Nc2cc(Cl)ccc2O)cc1`, the “hERG current change (%, negative = inhibition) at 1uM” value amounted to 9.44%.

Consider `CCC(NC(=O)CCCc1ccccc1)c1ccccc1` (stereo not drawn), for which the “hERG current change (%, negative = inhibition) at 1uM” value was 13.9%.

Take `Cc1ccc(C2=NNC(C(O)C(O)C(O)C(C)O)S2)cc1` (stereo not drawn): the “hERG current change (%, negative = inhibition) at 1uM” value is reported as 9.44%.

Turning to `O=C(NC(=O)c1ccccc1)NC(=O)c1ccccc1`, the “hERG current change (%, negative = inhibition) at 1uM” value was determined as 8.16%.

With `CCN1CCN(CCCNC(=O)C2CCN(c3nnc(-n4c(C)ccc4C)s3)CC2)CC1`, the “hERG current change (%, negative = inhibition) at 1uM” value stood at 1.52%.

With `Cc1sc(N/N=C/c2ccco2)nc1-c1ccccc1`, the “hERG current change (%, negative = inhibition) at 1uM” value came out at 4.38%.

`Cc1cc(C)c(NC(=O)CSc2nc3ncc(Cl)cc3[nH]2)c(C)c1`: the “hERG current change (%, negative = inhibition) at 1uM” value is 11.6%.

As to `Cc1ccnc(NS(=O)(=O)Cc2ccccc2)c1`, the “hERG current change (%, negative = inhibition) at 1uM” value is 10.7%.

For the molecule `CC(=O)c1cn(CCOc2cc(C)ccc2C)c2ccccc12`, the “hERG current change (%, negative = inhibition) at 1uM” value worked out at 15%.

In the case of `COc1ccc(C2OC(=O)CC2C(=O)NC2CCCC(C)C2C)cc1OC` (stereo not drawn), the “hERG current change (%, negative = inhibition) at 1uM” value stood at 17.2%.

As to `CCN(CC(=O)Nc1c(F)cccc1F)C(=O)c1ccc2ccccc2n1`, the “hERG current change (%, negative = inhibition) at 1uM” value was -1.85%.

As for `Clc1ccc(Cn2cccn2)cn1`, the “hERG current change (%, negative = inhibition) at 1uM” value stood at 10.1%.

Regarding `Cc1noc(C)c1COC(=O)CCCNC(=O)c1ccc(Cl)cc1`, the “hERG current change (%, negative = inhibition) at 1uM” value was found to be 5.76%.

Take `Cc1nnc(SCC(=O)NC(C)(C)C)n1CCc1ccccc1`: the “hERG current change (%, negative = inhibition) at 1uM” value is recorded as -2.61%.

As for `CCOc1ccc2[nH]c(O)c(NC(C)=O)c2c1`, the “hERG current change (%, negative = inhibition) at 1uM” value was found to be 5.98%.
